{
  "source": "PubChem BioAssay AID588501",
  "about": "(NMMLSC, 2011)",
  "note": "The campaign covered roughly 360,000 compounds. About 420 (0.12%) were called active. The shares of active, inactive and inconclusive entries below differ from those in the screen. No stated cut-off is given here; in the data, active means inhibition above about 30%; inconclusive means no clear call, values can overlap the other calls; inactive means below that.",
  "data": [
    {"molecular_target": "Lethal factor (Bacillus anthracis) (UniProt P15917)", "sequence (P15917 whole entry, looked up)": "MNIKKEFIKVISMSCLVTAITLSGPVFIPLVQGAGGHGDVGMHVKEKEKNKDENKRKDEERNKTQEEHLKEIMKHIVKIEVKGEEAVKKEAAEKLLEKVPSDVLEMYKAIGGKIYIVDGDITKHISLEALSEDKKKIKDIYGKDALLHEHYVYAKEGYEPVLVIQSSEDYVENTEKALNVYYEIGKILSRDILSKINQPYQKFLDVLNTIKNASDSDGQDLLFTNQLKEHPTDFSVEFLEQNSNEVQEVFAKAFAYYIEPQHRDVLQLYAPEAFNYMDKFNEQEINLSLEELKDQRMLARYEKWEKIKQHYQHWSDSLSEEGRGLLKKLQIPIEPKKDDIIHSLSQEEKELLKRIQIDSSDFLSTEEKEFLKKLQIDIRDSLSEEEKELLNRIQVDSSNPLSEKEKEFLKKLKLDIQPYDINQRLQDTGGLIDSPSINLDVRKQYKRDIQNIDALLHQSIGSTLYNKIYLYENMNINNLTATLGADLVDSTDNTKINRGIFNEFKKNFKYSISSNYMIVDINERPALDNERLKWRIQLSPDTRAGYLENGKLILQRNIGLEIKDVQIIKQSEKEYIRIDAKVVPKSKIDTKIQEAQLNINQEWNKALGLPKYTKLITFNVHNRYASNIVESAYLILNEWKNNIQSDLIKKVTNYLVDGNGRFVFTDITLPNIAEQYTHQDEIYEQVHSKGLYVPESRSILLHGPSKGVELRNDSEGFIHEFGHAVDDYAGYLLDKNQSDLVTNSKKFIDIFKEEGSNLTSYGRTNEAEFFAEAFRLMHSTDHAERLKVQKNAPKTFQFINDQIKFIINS", "assay": "anthrax lethal factor cleavage blockers – biochemical, multiplex microsphere, MLPCN library, primary screen (AID 588501); further: plate controls were buffer without enzyme for full effect and enzyme alone for no effect", "conditions": "multiplex microsphere protease cleavage assay, LF; at 10 µM; hits give high values", "values": [
      {"smiles": "COc1ccc(S(=O)(=O)N2CCCCC2)cc1NC(=O)Cc1ccsc1", "inhibition": "inactive: -6.8%"},
      {"smiles": "Cc1ccc(N2CC(NS(=O)(=O)c3cc(F)ccc3F)CC2=O)cc1C", "note": "(stereo unspecified)", "inhibition": "inconclusive: -1.3%"},
      {"smiles": "NC(=O)c1ccccc1N=Cc1ccccn1", "inhibition": "inconclusive: -125%"},
      {"smiles": "Cc1c(S(=O)(=O)N(C)C2CCCCC2)c(=O)n(C)c(=O)n1C", "inhibition": "inconclusive: -4.2%"},
      {"smiles": "Cc1ccc(Cl)cc1Nc1nc(-c2cccnc2)cs1", "inhibition": "inactive: -20.6%"},
      {"smiles": "COc1ccc(NC(=O)CN(C)C(=O)CSCC(=O)Nc2ccc(C)cc2)cc1", "inhibition": "inconclusive: 3.1%"},
      {"smiles": "CCc1cc(=O)oc2c3c(cc(OCC(=O)NCc4ccncc4)c12)OC(C)(C)CC3", "inhibition": "inactive: -2.4%"},
      {"smiles": "Cc1cc(-c2c(C(=O)N3CCOCC3)c(C)nn2-c2ccccc2)no1", "inhibition": "active: 34.5%"},
      {"smiles": "COc1ccc(CN(C)C(=O)CCN(c2ccccc2)S(=O)(=O)c2ccc(C)cc2)c(OC)c1", "inhibition": "inconclusive: 3.9%"},
      {"smiles": "COC(=O)c1cnn(-c2ccc(F)cc2F)c1/C=N/NC(=S)NC(C)(C)C", "inhibition": "active: 52%"},
      {"smiles": "O=C(OCc1ccccc1F)c1cc([N+](=O)[O-])ccc1N1CCOCC1", "inhibition": "inconclusive: -2.7%"},
      {"smiles": "Cc1ccc(C2=NC(C)(C)NC2=O)cc1", "inhibition": "inactive: -6.1%"},
      {"smiles": "CC(=O)N/C(=C\\c1ccccc1)C(=O)OCc1ccc(F)cc1", "inhibition": "inconclusive: -2.1%"},
      {"smiles": "O=C1OC(C(Cl)(Cl)Cl)Nc2ccccc21", "note": "(stereo unspecified)", "inhibition": "inactive: -7.5%"},
      {"smiles": "Cc1ccsc1/C=C1\\SC(=S)N(CC2CCCO2)C1=O", "note": "(stereo unspecified)", "inhibition": "active: 31.8%"},
      {"smiles": "COc1nc(-c2ccccc2)ccc1-c1noc(C)n1", "inhibition": "inconclusive: -18.9%"},
      {"smiles": "Cc1cc(OCC(=O)NCC2CCC(C(=O)O)CC2)c2c3c(c(=O)oc2c1)CCC3", "note": "(stereo unspecified)", "inhibition": "inactive: -4%"},
      {"smiles": "O=C(CCl)Nc1cccc(CP(=O)(c2ccccc2)c2ccccc2)c1", "inhibition": "inconclusive: 29.6%"},
      {"smiles": "Cc1nnc(NC(=O)CCSc2ccccc2)s1", "inhibition": "inactive: 0.9%"},
      {"smiles": "CC(C)CCN1C(=O)CCC1(C)C(=O)NC1CCCCCC1", "note": "(stereo unspecified)", "inhibition": "inactive: 1.2%"},
      {"smiles": "CNc1ccccc1C(=O)OCC(=O)N(CCOC)c1c(N)n(CC(C)C)c(=O)[nH]c1=O", "inhibition": "inconclusive: -2.2%"},
      {"smiles": "CC1(C)C(O)=C(c2nc3ccccc3[nH]2)C(=N)N1c1ccccc1", "inhibition": "inconclusive: -23.5%"},
      {"smiles": "COC(=O)C(C)Oc1ccc2c3c(c(=O)oc2c1)CCCCC3", "note": "(stereo unspecified)", "inhibition": "inconclusive: -28.7%"},
      {"smiles": "COc1ccc(C(=O)Nc2cccc(C)n2)cc1S(=O)(=O)N1CCCc2ccccc21", "inhibition": "inconclusive: -2.2%"},
      {"smiles": "CCc1ccc(-c2cc(C(F)(F)F)n3nc(C(=O)Nc4c(C)nn(Cc5ccccc5C)c4C)cc3n2)s1", "inhibition": "active: 30.5%"},
      {"smiles": "COCc1nnc(NC(=O)C23CC4CC(CC(C4)C2)C3)s1", "inhibition": "inconclusive: -0.9%"},
      {"smiles": "CC1(C)CC(Cc2ccc(Cl)nc2)N(C(=O)OC(C)(C)C)C1", "note": "(stereo unspecified)", "inhibition": "inactive: -0.1%"},
      {"smiles": "COc1ccc(NS(=O)(=O)c2cccc(C(=O)N(C)CC(=O)Nc3ccc(C)cc3)c2)cc1", "inhibition": "inconclusive: 8.4%"},
      {"smiles": "CC(C)NC(=O)c1ccccc1-c1ccccc1", "inhibition": "inconclusive: -9%"},
      {"smiles": "CC(C)c1ccc(O)c(NC(=O)c2cncc(Br)c2)c1", "inhibition": "inconclusive: -5%"},
      {"smiles": "CC(=O)Nc1ccc(NC(=O)C(C)OC(=O)c2ccc3[nH]c(C)c(C)c3c2)cc1", "note": "(stereo unspecified)", "inhibition": "inconclusive: -3.3%"},
      {"smiles": "Brc1cccc(-c2cnc3n2CCCCC3)c1", "inhibition": "inactive: 0.6%"},
      {"smiles": "CC(=O)Nc1c(Cl)cc2c(c1Cl)Cc1cc(C#N)ccc1-2", "inhibition": "inactive: -3.9%"},
      {"smiles": "Cc1cccc(N2CN(S(=O)(=O)c3cccc([N+](=O)[O-])c3)c3nc4ccccc4nc32)c1", "inhibition": "inactive: 0%"},
      {"smiles": "CCC(=O)Nc1cccc(-c2cnc3ccccc3n2)c1", "inhibition": "inconclusive: 4.7%"},
      {"smiles": "CCOC(=O)c1c(NC(C)=O)sc2c1CCC(C=O)=C2Sc1ccccc1", "inhibition": "active: 41.3%"},
      {"smiles": "Cc1ccc(C)c(NC(=O)c2cc(S(=O)(=O)N3CCOCC3)cn2C)c1", "inhibition": "inactive: 0.9%"},
      {"smiles": "COc1ccc(OC)c(-n2c(-c3ccc(S(C)(=O)=O)cc3)cc(C=O)c2C)c1", "inhibition": "inactive: -3%"},
      {"smiles": "C=CCc1cccc2cc(C(=O)Nc3ccc(CC(=O)O)cc3)c(=O)oc12", "inhibition": "inactive: -7.4%"},
      {"smiles": "COc1cccc(NC(=O)CN(C)C(=O)c2ccccn2)c1", "inhibition": "inconclusive: -1.2%"},
      {"smiles": "Cn1ccc2c(-c3ccc(F)nc3)cc3c(c21)C1CCC3C1", "note": "(stereo unspecified)", "inhibition": "active: 37.2%"},
      {"smiles": "CCOc1ccc(-c2nc(C#N)c(NCC3CCCO3)o2)cc1", "note": "(stereo unspecified)", "inhibition": "inconclusive: -22%"},
      {"smiles": "COCCN(CCOC)C(=O)C1CCN(c2ccc(S(=O)(=O)N3CCOCC3)cc2[N+](=O)[O-])CC1", "inhibition": "inconclusive: -21.8%"},
      {"smiles": "C#CC(CC)(CC)NC(=O)/C=C/C(=O)O", "inhibition": "active: 32.1%"},
      {"smiles": "COc1ccccc1N1C(=O)C(=O)N(C)C1=O", "inhibition": "inactive: 3.2%"},
      {"smiles": "CSc1ccccc1NC(=O)c1ccoc1C", "inhibition": "inconclusive: -16.8%"},
      {"smiles": "CCCOc1ncnc2c1[nH]c1ccc(OC)cc12", "inhibition": "inactive: -2.6%"},
      {"smiles": "O=C(O)CCCC(=O)NCc1c(Cl)cccc1Sc1ccc(Cl)cc1", "inhibition": "inconclusive: -7.5%"},
      {"smiles": "O=C(CSc1n[nH]c(=O)n1C1CC1)c1ccc(F)cc1", "inhibition": "inconclusive: -14.5%"},
      {"smiles": "Cn1c(=O)c2c(ncn2CC(=O)OCCCC(=O)c2ccc(Br)cc2)n(C)c1=O", "inhibition": "inactive: -4.3%"},
      {"smiles": "O=C(CCC(=O)OCC(=O)c1ccc(Cl)cc1)NC1CCCCC1", "inhibition": "inconclusive: -17.2%"},
      {"smiles": "CC(=O)c1c(C)[nH]c(C(=O)CN2C(=O)NC(C)(c3ccc4c(c3)OCO4)C2=O)c1C", "note": "(stereo unspecified)", "inhibition": "inconclusive: -4.2%"},
      {"smiles": "O=C(NNC(=O)c1cccs1)c1ccco1", "inhibition": "inactive: 0.1%"},
      {"smiles": "S=C(Nc1ccccc1)N1CCn2c(nc3ccccc32)C1", "inhibition": "inactive: 2%"},
      {"smiles": "Cc1cc(C(=O)Nc2cc(C(F)(F)F)ccc2N2CCOCC2)no1", "inhibition": "inactive: 0.3%"},
      {"smiles": "CCOC(=O)N1CCN(C(=O)COC(=O)C2CCN(S(=O)(=O)c3c(Cl)cccc3Cl)CC2)CC1", "inhibition": "inconclusive: 7.3%"},
      {"smiles": "CCN1C(=O)c2cccc3c(NS(=O)(=O)c4ccc(NC(C)=O)cc4)ccc1c23", "inhibition": "inconclusive: -0.7%"},
      {"smiles": "Cc1cccc(/C=N/NC(=O)Cc2cccs2)c1", "inhibition": "inconclusive: 0.7%"},
      {"smiles": "CCOC(=O)N1CCN(C(=S)NC(=O)c2cccc(OC)c2)CC1", "inhibition": "inconclusive: -8.4%"},
      {"smiles": "Cc1cc(/C=C2\\C(=O)NC(=O)N(c3ccc(Br)cc3)C2=O)c(C)n1C", "inhibition": "inactive: -0.7%"},
      {"smiles": "Cc1ccc(-c2nc(CSCC(=O)NCc3cccnc3)c(C)o2)cc1", "inhibition": "inconclusive: -0.4%"},
      {"smiles": "COc1ccccc1OCCNC(=O)Nc1cc(F)c(F)cc1Cl", "inhibition": "active: 31%"},
      {"smiles": "CN1C(=O)C2(c3ccccc31)c1c(oc3ccccc3c1=O)C(=O)N2CCO", "note": "(stereo unspecified)", "inhibition": "inconclusive: -4.3%"},
      {"smiles": "CCOC(=O)N1CCN(C(=O)c2ccc(N3C(=O)CCC3=O)cc2)CC1", "inhibition": "inconclusive: -10.6%"},
      {"smiles": "Cc1cc(OC(=O)N2CCOCC2)cc(C)c1Cl", "inhibition": "inactive: 1%"},
      {"smiles": "O=C(NCCCN1CCCC1=O)c1c(O)nc2sccn2c1=O", "inhibition": "inconclusive: -0.3%"},
      {"smiles": "COc1ccc(S(=O)(=O)N2CCC3(CC2)OCCN3S(=O)(=O)c2cccs2)cc1", "inhibition": "inconclusive: -2.6%"},
      {"smiles": "CC(=O)Nc1ccc(NC(=O)CSc2nc(=O)n3cccc(C)c3n2)cc1", "inhibition": "inconclusive: 6.3%"},
      {"smiles": "O=C(CCn1nnc2ccccc21)Nc1nnc(Cc2ccc(F)cc2)s1", "inhibition": "inconclusive: -23.1%"},
      {"smiles": "S=C(Nc1ccccc1Cl)N1CCCC(c2ccccc2)=N1", "inhibition": "inconclusive: -8.1%"},
      {"smiles": "COc1ccc(-c2cc(C(F)(F)F)nc(SCC(=O)NCc3ccco3)n2)cc1OC", "inhibition": "inactive: 1.5%"},
      {"smiles": "CC(C)Oc1ccc(S(=O)(=O)N2CCCCC2)cc1NC(=O)C1CCCC1", "inhibition": "inconclusive: -5.2%"},
      {"smiles": "O=C(NCc1cccnc1)c1ccc2c(=O)n(CCCN3CCCC3=O)c(=S)[nH]c2c1", "inhibition": "inconclusive: -3.5%"},
      {"smiles": "C/C(Cc1ccccc1)=N\\NC(=O)CNC(=O)c1ccc(Cl)cc1Cl", "inhibition": "inconclusive: -8.8%"},
      {"smiles": "COc1ccc2c(c1)cc(C)c1nnc(SCC(=O)N(C)c3nc(-c4ccccc4)cs3)n12", "inhibition": "inconclusive: -35%"},
      {"smiles": "Cc1ccc(NC(=O)N(C2=NCC(C)S2)c2ccccc2)cc1", "note": "(stereo unspecified)", "inhibition": "inactive: -9.2%"},
      {"smiles": "CCn1c(CN2CCOCC2)nnc1SCC(=O)Nc1ccccc1C", "inhibition": "inactive: -0.6%"},
      {"smiles": "CCOC(=O)N1CCN(C(=O)c2cc(S(=O)(=O)N3CCc4ccccc43)ccc2OC)CC1", "inhibition": "inconclusive: 3.2%"},
      {"smiles": "CC(OC(=O)c1ccc(Cl)c(S(N)(=O)=O)c1)C(=O)NCc1ccc2c(c1)OCO2", "note": "(stereo unspecified)", "inhibition": "inconclusive: -38.7%"},
      {"smiles": "O=C(COC(=O)c1ccccc1-n1cnnn1)c1ccc(F)cc1", "inhibition": "inconclusive: 1.7%"},
      {"smiles": "CCCCC(c1nc2ccccc2[nH]1)n1c(=O)c(-c2ccccc2)nc2cc(C)c(C)cc21", "note": "(stereo unspecified)", "inhibition": "active: 34%"},
      {"smiles": "CCOC(=O)c1ccc(Oc2cc(C)nc(SC)n2)cc1", "inhibition": "inconclusive: -18.9%"},
      {"smiles": "CCOc1ccc(NC(=O)CN(C)C(=O)c2ccc(N3CCCC3)c([N+](=O)[O-])c2)cc1OCC", "inhibition": "inconclusive: 3.7%"},
      {"smiles": "Cn1nc(C(=O)NCc2cccs2)c2ccccc2c1=O", "inhibition": "inactive: -0.1%"},
      {"smiles": "Cc1ccc2c(c1)N(CCC(=O)NC1CC1)C(=O)C(C)O2", "note": "(stereo unspecified)", "inhibition": "inconclusive: -7.9%"},
      {"smiles": "CN(C)c1ccc(/C=C2/C[N+](C)(C)C/C(=C/c3ccc(N(C)C)cc3)C2=O)cc1", "inhibition": "active: 40.9%"},
      {"smiles": "COCc1c(C(=O)N(C)Cc2ccccc2N2CCCC2)oc2ccccc12", "inhibition": "inconclusive: 0.6%"},
      {"smiles": "Cc1ccc(-n2c(-c3ccco3)nc3nc4ccccc4nc32)cc1F", "inhibition": "inconclusive: 9.5%"},
      {"smiles": "Cc1nnc(NC(=O)CSc2nc3ccccc3o2)s1", "inhibition": "inactive: -9.5%"},
      {"smiles": "COc1ccc(C(=O)OCC(O)COC(=O)c2ccc(OC)cc2)cc1", "inhibition": "inconclusive: -6.4%"},
      {"smiles": "Cc1cc(N2CCCC2)c(F)cc1/C=C\\[N+](=O)[O-]", "inhibition": "active: 34.9%"}
    ]}
  ]
}
